# According to the supplement of paper PMC3334620:
# The full ranking holds about 33,000 sequences; the median of “E-score (-0.5 to 0.5)” is about -0.013, and the highest 2% start at about 0.3. The list shows a part of the results.
# Biological target: T1, Msn1 (UniProt P22148)
# T1 sequence: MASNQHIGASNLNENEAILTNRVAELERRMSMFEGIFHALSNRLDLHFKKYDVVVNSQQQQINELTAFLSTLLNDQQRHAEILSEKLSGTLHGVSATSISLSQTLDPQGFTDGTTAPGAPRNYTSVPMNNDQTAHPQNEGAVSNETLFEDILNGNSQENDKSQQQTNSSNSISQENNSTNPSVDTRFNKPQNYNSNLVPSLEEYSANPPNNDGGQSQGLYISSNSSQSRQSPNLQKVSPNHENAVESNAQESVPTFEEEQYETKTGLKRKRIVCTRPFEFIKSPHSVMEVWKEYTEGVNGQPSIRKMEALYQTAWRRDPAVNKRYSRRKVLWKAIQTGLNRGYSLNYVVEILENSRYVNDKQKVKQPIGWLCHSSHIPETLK
# Experiment: PBM E-score (8-mer binding enrichment) (E-score (-0.5 to 0.5)); higher = stronger / more preferred TF binding; most listed sequences are background and not binding sites
# Details: protein concentration: 200 nM; construct: GST-full length
# Method in brief: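 Each ungapped eight-base word and its reverse complement, pooled, received an E-score from the Universal PBM Analysis Suite. Underlying scans, normalised with masliner, recorded fluorescent anti-GST bound to GST-tagged yeast transcription factors. These were applied at about 100-200 nM to universal all-10-mer Agilent arrays double-stranded by primer extension.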
row,Sequence,PBM E-score
1,AAATATGT,0.37
2,AAAATACT,0.0506
3,AGGTCTAA,0.0887
4,ACATGCCC,0.127
5,ACAATCGC,0.0491
6,CCCGTAGA,-0.3
7,ACCACGGT,-0.27
8,GTCATTGA,0.0439
9,AAATCGGA,0.102
10,GATTCTAA,0.0481
11,AAGTCCGG,0.22
12,ACCGCACA,-0.08
13,AAAGGCTA,-0.0614
14,ACCTATTC,-0.0726
15,GCGTCACA,-0.0278
16,ACGTCGGC,-0.059
17,CCTCCAAA,-0.0684
18,AGTAAGAG,0.0471
19,TAAACTGA,0.0472
20,CACACCGC,-0.133
21,AACATAGG,-0.0283
22,ACAAGGGA,-0.0265
23,ACGCTCGA,-0.0885
24,GCTGCGCA,-0.169
25,AGTTGTAG,-0.00068

row,Sequence,PBM E-score
1,AGCGGCCT,-0.175
2,AGCTGACA,0.0976
3,CCGTATTC,-0.0719
4,GCTAAGTA,0.0163
5,CCTTTGCA,-0.12
6,CAATTGAG,-0.0282
7,CTGCTTGC,-0.00023
8,GCCTAGGA,0.0781
9,ACACCCCG,-0.0945
10,GCCCCGCA,-0.108
11,CGGCTTTA,0.00647
12,ACAGCACA,0.0416
13,AACTAACG,0.0383
14,ACCTGTCT,0.0544
15,ACTTAGCT,-0.238
16,ATCTGTAA,0.0216
17,GCGAGAAC,-0.0229
18,TACGGCCA,-0.107
19,AGTCGACC,-0.117
20,GCATCCGA,-0.0879
21,ATGGGCAG,-0.0236
22,CCCGAAGA,0.044
23,CCAAACGA,0.0947
24,CGATCGGC,0.0853
25,GGACTAAA,0.238

row,Sequence,PBM E-score
1,AAAGTCGC,0.283
2,AATCAGAG,-0.0714
3,AACAGTAG,-0.0756
4,CGCCCCTA,-0.0917
5,CGGACTGA,0.0816
6,GTAACACA,0.178
7,CGTACTGA,0.0658
8,CAAGAGAA,0.0932
9,ACGACGTC,-0.105
10,ATTTTCTG,-0.0165
11,AAGCCCCA,-0.285
12,ACGGAGCT,-0.194
13,AGCAAGTC,-0.12
14,ATAACTGC,-0.0475
15,ATCTATCG,-0.0631
16,GTTCGACA,0.162
17,ACGTAATG,0.151
18,AGCTTTGG,-0.0201
19,AAACAGAT,0.103
20,CTGTCTCA,0.087
21,CAATATCC,0.113
22,AGGGCCAC,-0.121
23,AGTGCGGA,0.144
24,CCGGCTCC,-0.269
25,AGGGTCCC,-0.292

row,Sequence,PBM E-score
1,ATCCCTGA,-0.14
2,GCGAAGCC,-0.301
3,CCGAAAAG,0.211
4,TAAACTTA,0.00053
5,ATGGGAGA,-0.187
6,CTGTTTCA,0.157
7,GGAGAACC,-0.0953
8,AGGCGCGG,-0.0991
9,GTGCCAAC,-0.0599
10,CAGAGCGC,-0.144
11,AGATCCAT,-0.153
12,AAAATCGT,0.182
13,GCGAGCGC,0.0829
14,GCACTCAC,-0.284
15,GGCTTAAA,0.0688
16,CATTGGGC,-0.165
17,GACTTCAC,0.0986
18,ATCCTTCA,-0.0167
19,CGTCCACC,-0.226
20,AAAACAAT,0.127
21,TGAAGCCA,-0.143
22,AAGCTGGT,-0.026
23,CCACGTTC,-0.145
24,ATAACAGC,0.114
25,CTCTCAAA,0.00121

row,Sequence,PBM E-score
1,GGTAAGGA,-0.0712
2,ATTGCTTG,0.00964
3,AAGTACCA,0.107
4,AGACTCCA,-0.187
5,TAGTTGAA,0.0956
6,TATAGGCA,-0.0463
7,AATAATAA,0.132
8,TCACGCCA,-0.0336
9,GTCCAAGA,-0.0704
10,GCGTTTTA,-0.166
11,CACGATAC,-0.0869
12,AATTAAAT,0.201
13,CAGCCGAG,-0.0856
14,CCATTTCC,0.0324
15,GCATTGCC,0.034
16,CGCGGAAG,-0.0641
17,GGAACGTA,-0.143
18,AATAACTC,0.00363
19,ACCGGTGC,-0.114
20,AATAGTTC,0.182
21,AAGTATCG,-0.023
22,CCCAGCCC,-0.209
23,CCGCTAAA,-0.109
24,GGATCCAA,0.146
25,CATGATGA,0.0359

row,Sequence,PBM E-score
1,TACGCGAA,0.083
2,TTGCACAA,0.204
3,CGATCATC,-0.118
4,AAGGCGGT,0.088
5,AGGCTAGG,-0.329
6,AGCATGTG,-0.0619
7,AATCCAGT,0.126
8,CAACAGGC,0.0441
9,TATTTCAA,0.283
10,CCTTAGGA,0.0529
11,AAGGGGGA,-0.301
12,AGGTCTTG,0.0388
13,CGGAGGAA,-0.131
14,TGGCAACA,0.103
15,ATTGTATA,0.198
16,TACCGTCA,-0.0494
17,AAAGTTGC,-0.208
18,TAGCTCAA,-0.0254
19,ACCGTTTG,0.129
20,AGGGGTCC,-0.302
21,AGGGCCCC,-0.276
22,CGCCCAGA,-0.0991
23,TGAGCGCA,-0.156
24,CCTGGCGA,-0.15
25,CACGTCAA,0.0835

row,Sequence,PBM E-score
1,ATATCCAT,0.0453
2,AATTGGTC,0.15
3,AGATCTAT,0.0466
4,AGCGTGAC,0.0296
5,CAGGAACC,-0.182
6,CTCTTCCC,-0.153
7,AGGAGGAA,-0.187
8,ATACTGGG,-0.0202
9,AACTAGTC,0.116
10,AACGATCG,0.13
11,ACCCAAGT,0.0153
12,ACGCCATG,0.0667
13,AAGCTTGG,-0.0757
14,AACCACCT,-0.00544
15,CGCTGGTA,-0.155
16,GCCAGGCA,-0.0442
17,CACCCTTA,0.0165
18,ACGTCAAA,0.164
19,GTATGATA,0.2
20,AACAACGC,0.0709
21,CGGTCCAG,-0.144
22,ATATATGA,0.155
